Laboratory results reported in the antibiotic and cytotoxicity screens of Wong et al. (2023).
The other results are listed elsewhere or left out.

Key:
HSkMC = human skeletal muscle cells; experiment: cytotoxicity call (relative viability < 0.9); settings: 10 µM
HepG2 = experiment: cytotoxicity call (relative viability < 0.9); settings: 10 µM
S. aureus RN4220 = experiment: growth inhibition call (relative growth <= 0.2); settings: 50 µM

Structure (SMILES)	cytotoxicity call (HSkMC)	cytotoxicity call (HepG2)	growth inhibition call (S. aureus RN4220)
CN1CCN(CC#N)C(=O)C12CCN(S(=O)(=O)C1CC1)CC2	inactive	inactive	inactive
C[C@@H]1CN([C@@H](C)CO)C(=O)c2cc(NS(=O)(=O)c3ccc(F)cc3)ccc2O[C@@H](C)CCCCO[C@H]1CN(C)C(=O)Cc1ccccc1	inactive	inactive	inactive
COc1ccc(NC(=O)Nc2cccc3c2O[C@H](CN(C)Cc2ccc(C(F)(F)F)cc2)[C@H](C)CN([C@H](C)CO)C3=O)cc1	inactive	inactive	inactive
COc1cccc2c1C(=O)c1c(O)c3c(c(O)c1C2=O)CC(O)(C(=O)CO)CC3OC1CC(N)C(O)C(C)O1 (configuration not stated)	inactive	active	inactive
C[C@@H]1CN([C@H](C)CO)C(=O)c2cccc(NC(=O)C3CCCCC3)c2O[C@H]1CN(C)Cc1ccc(-c2ccccc2)cc1	inactive	inactive	inactive
C[C@@H]1CN([C@@H](C)CO)C(=O)c2cc(NC(=O)Nc3ccccc3)ccc2O[C@@H](C)CCCCO[C@H]1CN(C)S(=O)(=O)c1ccc(C(F)(F)F)cc1	inactive	inactive	inactive
C[C@H](CO)N1C[C@H](C)[C@@H](CN(C)C(=O)Nc2ccc(F)cc2)Oc2cc(C#CC3(O)CCCC3)ccc2S1(=O)=O	inactive	inactive	inactive
COc1ccc(CN(C)C[C@@H]2Oc3c(NS(=O)(=O)c4c(C)noc4C)cccc3C(=O)N([C@H](C)CO)C[C@@H]2C)cc1	inactive	inactive	inactive
CO[C@@H]1CN(C)C(=O)c2ccc(NS(=O)(=O)c3cn(C)cn3)cc2OC[C@H](C)N(CCC(F)(F)F)C[C@H]1C	inactive	inactive	inactive
